Biological target: T1, mouse RGMb (mRGMb) expressed on transfected cells (mouse, UniProt Q7TQ33 49-415)
T1 construct: whole, on cells; Also used for mRGMb in cell lysates (Western blot); also called DRAGON; 300-mRGMb cells
T1 sequence (looked up): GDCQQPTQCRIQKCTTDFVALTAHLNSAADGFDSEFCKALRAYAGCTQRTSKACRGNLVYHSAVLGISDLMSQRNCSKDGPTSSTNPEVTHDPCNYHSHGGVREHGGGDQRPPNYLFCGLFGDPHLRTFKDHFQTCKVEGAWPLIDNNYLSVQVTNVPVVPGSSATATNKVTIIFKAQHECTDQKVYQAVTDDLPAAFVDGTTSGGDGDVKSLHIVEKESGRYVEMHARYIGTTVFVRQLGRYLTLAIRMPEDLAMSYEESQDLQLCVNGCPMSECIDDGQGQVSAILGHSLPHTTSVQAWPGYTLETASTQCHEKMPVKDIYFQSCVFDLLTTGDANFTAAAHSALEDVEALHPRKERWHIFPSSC
Test: figure legend of FIGS. 1A-1R (flow cytometry, ELISA, cell conjugation)

B1: mouse PD-L1 (mPD-L1) expressed on transfected 300 cells (ligand)
chain: not shown
notes: whole, on cells; also called 300-mPDL 1; mPD-L1 cells
Does B1 bind?
Result: no binding

Source: patent US20150299322A1 (Dana-Farber, published 2015)
